Experimental data as given in PubChem BioAssay AID686979 (National Center for Advancing Translational Sciences (NCATS), 2013).
The whole screen tested about 420,000 compounds, of which about 50,000 (12%) were called active. Inconclusive results, whose numbers are uncertain, are shown with a selection of clear calls. Calls come from the whole dose curve; as a rule, active = well fitted inhibition curve with a large enough effect; inconclusive = small, poorly fitted or top-dose-only effect; inactive = flat fitted curve, though single readings scatter. No potency is given beside an inconclusive call; the fits are too rough.

Test: qHTS for Inhibitors of human tyrosyl-DNA phosphodiesterase 1 (TDP1): qHTS in cells in presence of CPT; note: nearly all actives have a fitted effect of over 55% in size
Conditions: chicken DT40 Tdp1-/-;hTDP1 cells + 20 nM CPT, ATP luminescence, 48 h; series mostly up to 46.2 µM
Method in brief: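 Chicken DT40 Tdp1-/- cells stably complemented with human TDP1 were seeded at 400 cells/well in medium containing 20 nM camptothecin, exposed to pin-transferred compounds, and grown at 37 °C for at least 48 hr. Viability was read as ATP luminescence.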
Potency is the fitted concentration of half-maximal effect; tags give direction and shape of the fitted curve.

| Structure (SMILES) | Potency |
| --- | --- |
| COc1cccc(NC(=O)c2sc3nc(C)c(C(=O)Nc4ccc(Cl)cc4)c(-c4ccc(Br)cc4)c3c2N)c1 | inconclusive [inhibitor, single point] |
| O=C(CSc1n[nH]c(-c2ccccc2)n1)N1CCN(c2ccccc2F)CC1 | inconclusive [inhibitor, single point] |
| O=C(NC(=S)Nc1ccc2c(c1)OCCO2)c1cccc2ccccc12 | inconclusive [inhibitor, single point] |
| Cc1ccccc1CC1(CO)CCCN(C(=O)CCCN2CCCCC2=O)C1 (configuration not stated) | inactive |
| CC(=O)Nc1ccc(NC(=O)C(C)Sc2nc3ccccc3c(=O)n2CC2CCCO2)cc1 (configuration not stated) | inconclusive [inhibitor, single point] |
| COc1ccc(N(CC(=O)Nc2cccc(C(C)=O)c2)S(=O)(=O)c2ccccc2)c(OC)c1 | active: 7.31 µM |
| O=C(NCCc1nc(-c2ccc(F)cc2)no1)c1ccc(F)cc1 | inconclusive [inhibitor, partial curve, poor fit] |
| O=C(NCc1cn(-c2ccccc2)nc1-c1ccccc1)c1cc([N+](=O)[O-])cc([N+](=O)[O-])c1 | inconclusive [inhibitor, single point] |
| CCn1c(SCc2nc3scc(-c4ccccc4)c3c(=O)[nH]2)nnc1-c1cccs1 | active: 20.6 µM |
| O=C(NCc1ccccn1)c1cccc(NS(=O)(=O)c2ccccc2F)c1 | inactive |
| COc1ccc(-c2c3c(=O)n(C)c(=O)n(C)c3c3n2-c2ccccc2NC3c2ccc(O)cc2O)cc1 (configuration not stated) | active: 16.4 µM |
| CO/N=C/NC(=O)NOCc1ccc(Cl)cc1Cl | inactive |
| CCCS(=O)(=O)NC(=O)C1(C)CCN(C(=O)Cc2ccc3ccccc3c2)C1 (configuration not stated) | inactive |
| CCc1ccc(OCC(O)CN2CCC(CN3C(=O)c4cccc5cccc(c45)C3=O)CC2)cc1 (configuration not stated) | active: 14.6 µM |
| Cc1ccc2c(c1)N(CC(=O)NCCc1c[nH]c3ccccc13)C(=O)CO2 | inactive |
| CC(C(=O)NC(C)(C)C)n1c(C(c2ccccc2)c2ccccc2)nc2ccccc21 (configuration not stated) | inconclusive [inhibitor, single point] |
| O=C1CCC/C1=c1\s/c(=C/c2cccnc2)c(=O)n1-c1ccccc1 | inconclusive [inhibitor, single point] |
| Cn1c(=O)c2c(nc(N3CCOCC3)n2Cc2c(F)cccc2Cl)n(C)c1=O | active: 20.6 µM |
| Cc1c(C)c2ccc(OCC(=O)Nc3ccc(CN4CCOCC4)cc3)cc2oc1=O | inconclusive [inhibitor, single point] |
| CN(C(=O)c1cc(COc2ccc(F)cc2Cl)on1)C1CCCc2ccccc21 (configuration not stated) | inconclusive [inhibitor, single point] |
| COc1cc(/C=C/c2nc(-c3ccccc3O)n[nH]2)cc(OC)c1OC | active: 20.6 µM |
| CCOc1ccc(C(=O)N(Cc2cc(OC)c(OC)c(OC)c2)c2ccccn2)cc1 | active: 14.6 µM |
| OCc1cnc(SCc2ccc(F)cc2)n1Cc1ccc(F)cc1 | inconclusive [inhibitor, partial curve, poor fit] |
| Cc1ccccc1C(=O)N1CCC(C(=O)Nc2ccc(C)c(S(=O)(=O)N3CCCCC3)c2)CC1 | active: 13 µM |

| Structure (SMILES) | Potency |
| --- | --- |
| Cc1nn(C)c2c1c(C(F)(F)F)cc(=O)n2C(C)C(=O)NCCc1ccccc1 (configuration not stated) | active: 0.184 µM |
| COCCOC(=O)CSc1ncccc1-c1nc2cc(C)c(C)cc2[nH]1 | inconclusive [inhibitor, partial curve] |
| NS(=O)(=O)c1ccc(CCNC(=O)CN2CCC(Cc3ccccc3)CC2)cc1 | inconclusive [inhibitor, single point] |
| O=C(Nc1nc2n(n1)C(c1ccc(Cl)cc1)C=C(c1ccccc1)N2)c1ccco1 (configuration not stated) | active: 20.6 µM |
| Brc1ccc(C2=CC(c3cccs3)n3ncnc3N2)cc1 (configuration not stated) | inconclusive [inhibitor, single point] |
| O=C(Oc1cccc(Br)c1)c1cccnc1 | inconclusive [inhibitor, single point] |
| CC(=O)CC(=O)NC1CCc2ccccc21 (configuration not stated) | inactive |
| O=C(Cn1c(CC(=O)N2CCCC2)nc2ccccc21)NCc1ccccc1 | inactive |
| C=CCN(CC=C)c1nc2ccccc2nc1C(C#N)C(=O)OCCOC (configuration not stated) | active: 20.6 µM |
| O=C(/C=C/c1ccc(N2CCC(c3ccccc3)=N2)cc1)c1ccccc1 | inconclusive [inhibitor, single point] |
| CCOC(=O)C1=C(C)NC(=O)NC1c1cn(-c2ccccc2)nc1-c1ccc(OC(C)C)cc1 (configuration not stated) | inconclusive [inhibitor, single point] |
| CCN(Cc1ccccc1)S(=O)(=O)c1cc(C(=O)OC)n(C)c1 | inconclusive [inhibitor, single point] |
| CC(=O)c1ccc(S(=O)(=O)NCC(=O)NC(c2nc3ccccc3[nH]2)C(C)C)cc1 (configuration not stated) | inconclusive [inhibitor, single point] |
| COC(=O)Cc1ccc(NC(=S)NN2CCOCC2)cc1 | inactive |
| Cc1ccc(C2C(C#N)=C(N)Oc3cc(C)oc(=O)c32)o1 (configuration not stated) | active: 18.4 µM |
| O=C(c1ccc(Cl)nc1)N1CCN(C/C=C/c2ccccc2)CC1 | inactive |
| Cc1cc(C)nc(/N=C2/NC(=O)CS2)n1 | inactive |
| O=C(COc1ccccc1Cl)Nc1ccc(N2CCCC2)cc1 | inactive |
| COC(=O)c1ccc(C(c2c(N)n(CC(C)C)c(=O)[nH]c2=O)N2CCN(c3ccccc3)CC2)cc1 (configuration not stated) | inconclusive [inhibitor, single point] |
| CC1=NN(c2nc3ccccc3[nH]2)C(=O)/C1=C/N(C)C | active: 4.61 µM |
| NNC(=S)NCCc1ccccc1 | inconclusive [inhibitor, single point] |
| COc1ccc(OCc2cc(C(=O)N[C@H]3CCCCNC3=O)no2)c(Cl)c1 | inactive |
| Cc1cc(C)c2nc(NNC(=O)c3ccc(S(=O)(=O)N4CCCCC4)cc3)sc2c1 | active: 4.61 µM |
